Measured values taken from PMC10046941.
Results are given in words; binding and its absence hold for the method and conditions named. Binding seen in cells or lysates may run through a third protein. Some results given as binding are weak or reduced against the parent protein; the word gives no strength.

Amino acid sequences for entries named in this document (tags omitted). A change or cut given only in a name is not applied to a line headed by its entry. Chains listed by the source or under a name are the forms on record and can include a tag or linker. Residues count along the entry.
UniProt P10923: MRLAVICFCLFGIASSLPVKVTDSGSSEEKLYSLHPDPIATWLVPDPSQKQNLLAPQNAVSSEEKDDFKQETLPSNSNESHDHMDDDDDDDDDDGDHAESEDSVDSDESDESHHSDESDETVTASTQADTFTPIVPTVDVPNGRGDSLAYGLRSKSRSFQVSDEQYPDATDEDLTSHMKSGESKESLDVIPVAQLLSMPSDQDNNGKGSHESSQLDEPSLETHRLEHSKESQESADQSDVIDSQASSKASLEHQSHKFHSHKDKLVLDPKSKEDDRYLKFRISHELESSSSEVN
osteopontin (OPN), endogenous in BV-2 cells (mouse (endogenous in BV-2)): residues 17-294 of P10923
N-terminal fragment of OPN (Met1-Gly151), Flag-tagged: residues 17-151 of P10923
C-terminal fragment of OPN (Leu152-Asn294), Flag-tagged: residues 152-294 of P10923
UniProt P16110: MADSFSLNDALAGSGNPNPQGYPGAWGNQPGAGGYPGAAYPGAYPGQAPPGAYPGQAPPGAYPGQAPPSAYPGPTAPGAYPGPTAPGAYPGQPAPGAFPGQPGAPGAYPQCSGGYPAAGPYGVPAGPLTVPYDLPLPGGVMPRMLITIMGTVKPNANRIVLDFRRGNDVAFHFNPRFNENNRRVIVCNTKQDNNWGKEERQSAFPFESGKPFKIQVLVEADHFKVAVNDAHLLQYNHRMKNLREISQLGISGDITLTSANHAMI

What was measured:
[1] = target: C-terminal fragment of OPN (Leu152-Asn294), Flag-tagged (UniProt P10923); test: co-IP; HEK293T cells with plasmids of GAL-3 and OPN-WT-Flag, OPN-N-Flag or OPN-C-Flag; Western blot; precipitating antibody not told for this experiment
[2] = target: N-terminal fragment of OPN (Met1-Gly151), Flag-tagged (UniProt P10923); test: as above
wild-type OPN-Flag = wild-type OPN-Flag (UniProt P10923); test: as above
[3] = target: OPN protein translated in vitro (UniProt P10923); test: co-IP; OPN and GAL-3 translated in vitro (TnT T7 Coupled Reticulocyte Lysate Systems), products combined, then the same co-IP procedure as for cell lysates
[4] = target: osteopontin (OPN), endogenous in BV-2 cells (mouse (endogenous in BV-2)) (UniProt P10923); test: co-IP; whole-cell lysates of BV-2 cells treated with OGD for 3 h; protein A + G agarose beads with antibody against OPN, 4 °C overnight; IgG of the same species as negative control; Western blot

In the case of “GAL-3 expressed from a plasmid in HEK293T cells (from UniProt P16110 1-264)”, the binding [1] is reported as “binds”, the binding [2] is reported as “no binding” and the binding (wild-type OPN-Flag) is reported as “binds”.
“GAL-3 protein translated in vitro (from UniProt P16110 1-264)” was tested, and the binding [3] was “binds”.
“galectin-3 (GAL-3), endogenous in BV-2 cells (from UniProt P16110 1-264)” was tested, and the binding [4] was “binds”.
